Data from PubChem BioAssay (NCI).
Where a structure was tested more than once in an assay, its records may differ in their call.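 Activity criterion: percent growth below 10, measured after cells in 96-well plates were exposed to a single compound concentration for 48 hours.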 Certain results were filed several times, with different values. This is not the full list of results. An entry can have further records. For part of these data: This drug was run again and again over the years, at its own concentration, as given; each value is one run. Brackets with × stand for listed records that agree. Entries with a single value are a further part of the results. The source made the active and inactive calls.

Tests used:
NCI/ADR-RES ovarian = test: NCI-60 one-dose screen, 48 h (100 = growth as untreated, 0 = no growth, -100 = all killed); conditions: 25 µM
T-47D breast = test: as above; conditions: 0.25 µM

COc1cccc2c1C(=O)c1c(O)c3c(c(O)c1C2=O)C[C@@](O)(C(=O)CO)C[C@@H]3OC1CC(N)C(O)C(C)O1 (stereo not given in full)
growth (NCI/ADR-RES ovarian; runs of 1998): inactive: 36.1, 15.7, 12.8, 24.6, 68.8, 42.1, 39.1, 23.9, 28.6, 28.8, 19.2, 29.6, 62.5, 40.1, 27.9, 55, 32.6, 46.5, 26.8, 41.7, 28.4, 36, 22, 31.9% and active: -25%, -6.44%, -5.04%
growth (NCI/ADR-RES ovarian; runs of 1999): inactive: 58.8, 48.5, 52.4, 22.2, 44.6, 26.4, 16.9, 11.2% and active: -67.9, 4.51, 6.75, 5.93, 7.28, 5.29, -24.8, 2.94%
growth (NCI/ADR-RES ovarian; runs of 2000): active: 0.303, -4.78, 7.21, 1.81%
growth (T-47D breast; runs of 2006): inactive: 11.8%
growth (T-47D breast; runs of 2007): inactive: 16.3, 27.8, 22.2, 20.7, 26.5, 38.9, 31.7 (3×), 35.1 (2×), 34.8 (2×), 54.3, 41.7, 29.8, 33.7, 24.9, 20.1, 36.8, 47.6, 38.8, 32.9, 25.1 (2×), 27.9 (2×), 41.2, 43.8, 30.8, 25.4, 24.6, 25.3, 61.3, 60.4, 23.3, 16.7, 23.5, 34.9% and active: 2.2%, 9.94%
growth (T-47D breast; runs of 2008): inactive: 26.4, 23, 23.2 (2×), 12.9 (3×), 18.4, 45.7, 35.3, 30.5, 35.6, 36.7, 31.2, 20 (2×), 16.1 (2×), 21, 16.8, 18.5, 15.8, 82.4, 10.6, 15.3, 13.3, 16.7, 18.9, 25.8, 24.6, 17.2, 12.5, 15.6, 33.3, 14.9, 19, 20.4, 17.6, 31.6% and active: 7, 7.6, 6.22, 4.51, 7.91, 5.27, -6.29, -5.91, 8.8, 2.65, 8.56%
growth (T-47D breast; runs of 2009): inactive: 32.9, 23.6, 22.1 (2×), 16.4, 17.6, 17.5, 22, 29.4, 17.7, 20, 21.9, 31.4, 12.2, 26.8, 23.2 (2×), 23.5, 11.5, 16.5, 27.5, 13.4, 19.5, 23.8 (2×), 28.9, 30.4, 19.1, 10.5, 13, 39.5, 26.1, 10.6, 18.8 (2×), 30.5, 21.7, 30.8, 23.1, 11.3, 13.3, 12.8, 13.6, 15.6, 16.6, 20.7, 14.7, 19.6, 18.7, 15.1, 11.8, 20.2 (2×), 31.7, 27.1 (2×), 14.1, 10.2, 25.6, 23.3, 43.6, 33.4, 16.8% and active: 6, -6.43, 7.05, 9.29, 9.38, 8.66, 9.32%
growth (T-47D breast; runs of 2010): inactive: 29.8, 30.5 (2×), 27.9, 18.5, 30.3, 41.8, 33.4, 33.7, 38, 35.7, 38.3, 24.1, 16.6, 25.1 (2×), 25.7, 20.2, 21, 20.7, 20.8, 21.9, 24.8, 22.8, 24.9, 21.5, 24.5, 36.9, 41.4, 21.3, 18.6, 35.2, 28.1, 39.2 (2×), 37.3, 40.6, 41.3, 33.9 (2×), 35.4, 30.8, 43.5, 41.9, 40.1, 41.1, 36.7, 27.4, 50.6, 48.4, 50.7% and active: 7.99%
growth (T-47D breast; runs of 2011): inactive: 38.7, 43.6, 35.1, 33.2 (2×), 44.2, 50.4, 38.8, 43.5, 35.4, 38.3, 58.2, 46.1, 51.7, 37.9, 56.2, 41.4, 20.8, 41.8, 39.7, 46.8, 37.1, 31.6, 44.7, 49.1, 45.1, 26.7, 47.1, 26.4, 40.2, 31.2, 31.4, 13.2, 28.1, 29, 24.9, 27.7, 21.3, 20.5, 21.6, 34.8, 28.8, 40.1, 32.9, 30.5, 33.5, 26.6, 30.3, 28.3, 36.1 (2×), 37.7, 37.6, 35.2, 28.9%
growth (T-47D breast; runs of 2012): inactive: 33.3, 31.1, 39.8, 36.2, 58.3, 66.7, 39.5, 30.6, 36, 32.8, 37.2, 40.5 (2×), 20, 28.8, 32.7, 30, 28.2, 27.6, 28.5, 35.8, 46.5, 46, 46.9, 37.9, 39, 30.4, 44.5, 37.5, 31.5, 42.5, 38.4, 44.4, 41.9, 37.4, 42.4, 54.6, 39.2, 42.6, 49.3, 54.3, 57.8, 53.3, 62.1, 44.7, 50.5, 53.8, 54.7, 50.8, 36.7, 59.6, 57.4, 55.5, 65.2, 31.3, 27.9, 34.2, 30.5, 36.3, 39.4, 38.6, 35.2, 42, 35.5, 34.4, 33.4% and active: -2.07%
growth (T-47D breast; runs of 2013): inactive: 34.5 (3×), 36.8, 13.8, 15.6, 44.2 (2×), 42.7, 35.5, 35.6 (2×), 37.3, 38.2, 39.4 (2×), 47.4, 35.1, 32.8, 36 (2×), 32.1, 36.6, 42.4, 34.3, 46.1 (2×), 42, 54.8, 41.1, 41.9, 42.8, 42.1 (3×), 38.7 (2×), 36.2, 48.7, 38.5, 40 (2×), 39.7, 37.6, 31.3, 30.6, 35 (2×), 40.1, 50.4, 39.9, 41.7, 39.8, 39.1, 39, 27.8 (2×), 28.3, 20.8, 24.2, 16.8, 15.5, 19.3, 31.4, 20.2, 26.5, 32.4, 27, 23, 21.8%
growth (T-47D breast; runs of 2014): inactive: 31.9, 38, 16.3, 19.7 (2×), 14.7, 20.5, 14.8, 50.8, 26.7 (2×), 22.8, 33.6, 42.6, 24, 28.2 (2×), 29 (2×), 26.8, 36.2, 28.7 (2×), 26.5, 23.6, 29.4, 29.5, 31.7, 27.6, 30, 37.4, 36.9, 34.3, 22.4, 26.6 (2×), 26.4, 32.8, 28.8 (2×), 24.9 (2×), 29.1, 11.2, 20.3, 36.3, 35.6, 21.1, 25.6, 15.1, 15.8, 31 (2×), 17.4, 27.7, 28.6, 23.1, 22.3, 23, 28.9, 24.6, 27.2, 16.7, 23.4, 20.1, 24.8, 19.5, 19.8%
growth (T-47D breast; runs of 2015): inactive: 28.9, 31.1, 33.3 (2×), 34.8, 24.5, 33.2, 29.8, 30.8, 23 (4×), 16.4 (2×), 20.9 (2×), 17.6, 16.6, 36.1, 14, 19.6, 21.8, 12.2, 37.2 (2×), 25.4, 25.6, 27.7, 24.4, 41.2, 19.5 (2×), 31, 43.5, 23.2, 34.1, 41.3, 33.4, 23.3, 25.7, 29.4, 14.8 (2×), 27.1, 37.5, 20.5, 22.8 (2×), 31.6 (2×), 18.9, 21, 28.7 (2×), 31.3, 21.3, 19, 36.6, 45.6, 33.7, 22.6, 17.9, 19.4, 24.2, 36.2, 30.6, 28 (2×), 25.3, 32, 40.5, 33.8, 27.5, 32.5, 39.1, 39.4, 18.3, 38.8, 30.4, 46.4% and active: 7.22%, 7.68%
growth (T-47D breast; runs of 2016): inactive: 33.9, 30.4, 20.8, 27.9 (2×), 38.6, 33.7, 21.6, 20.1, 21.1, 32.9, 28.1, 31.3, 20.6, 23.6, 26.4, 13.8 (2×), 15.8, 12.7, 23.3, 24.1 (2×), 24.5 (2×), 20.4, 27, 25.2, 20.9, 19.5, 33.4, 24.2 (2×), 30.6, 29.5, 37.1, 37.3, 35.1, 37.2, 30.3, 40.9, 33.5, 36.9, 39.9, 31.6, 41.2, 25.9, 30 (2×), 27.4 (2×), 32.8, 28.8, 26.1, 28.9, 22.3, 32.1, 31.7, 31.4 (2×), 41.3, 33.2, 42.5, 34 (2×), 46.3, 39.1, 37.5 (2×), 40.6, 38.3, 38.1, 36.2 (2×), 35.8, 23.8, 23.5, 25.8% and active: 8.64%, 9.18%
growth (T-47D breast; runs of 2017): inactive: 28.2 (2×), 30.8, 21.7 (2×), 29.8, 36, 23.8 (2×), 32.9, 19, 22, 27.5, 21.4, 19.6, 30.1, 24, 29.4, 34.7, 26.7, 25.1 (2×), 23.7, 20.8, 22.4 (2×), 12.7, 26.1, 23.4, 21, 24.4 (2×), 26 (2×), 18.6, 26.3, 24.5, 27.2, 17.8 (2×), 24.2, 27.7, 19.9 (3×), 21.5, 22.2, 15.9, 22.1, 16.2, 23.1, 30.7, 17.2, 14.1, 22.3, 16.5, 12.9, 22.9, 17.7, 16.9, 16.6, 27.4, 24.9, 18.9, 21.6, 32.5, 35.3, 28.9, 25, 33, 34.3, 35, 37.4, 32.7, 31.1, 20.5, 22.8% and active: 7.87%
